Data from PubChem BioAssay AID1347428 (National Center for Advancing Translational Sciences (NCATS), 2020).
The whole screen tested about 91,000 compounds, of which about 290 (0.32%) were called active. Inconclusive means that the source gave no clear call. Such entries were picked first, then a sample of the others. The call rests on the fitted dose curve; in most records, active means well fitted inhibition curve with a large enough effect; inconclusive means small, poorly fitted or top-dose-only effect; inactive means no such curve, though single readings can be large or run the other way. A potency beside an inconclusive call is a rough fit, not a confirmed value.

biological target: Single-stranded DNA cytosine deaminase (Homo sapiens) (UniProt Q9GZX7); assay: Primary qHTS assay for inhibitors of Activation Induced Cytidine Deaminase (AID): AID signal; details: AID deamination FRET fluorescence, UDG-coupled, 4 h; series mostly up to 115 µM; further: nearly all actives have a fitted effect of over 25% in size
Potency means the concentration at half of the fitted maximal effect; tags describe the fitted curve by direction and shape.

Chain of UniProt Q9GZX7 (Q9GZX7 whole entry, looked up): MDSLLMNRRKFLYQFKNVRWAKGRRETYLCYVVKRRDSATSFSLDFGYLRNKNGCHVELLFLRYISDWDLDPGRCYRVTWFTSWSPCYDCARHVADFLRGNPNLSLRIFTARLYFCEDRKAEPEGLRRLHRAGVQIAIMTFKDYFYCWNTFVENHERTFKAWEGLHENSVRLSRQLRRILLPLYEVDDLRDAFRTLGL

Structure (SMILES)	Potency
O=C(O)c1ccc(-c2ccccc2)s1	inactive
CCc1ccc2occ(CC(=O)Nc3ccc(C)c(C)c3)c2c1	inconclusive: 25.1 µM [inhibitor, full curve, poor fit]
Cc1ccn2c(Nc3ccc4c(c3)OCCO4)c(-c3ccc(N(C)C)cc3)nc2c1	inconclusive: 89.1 µM [inhibitor, single point]
Cc1ccc(CNC(=O)CSCc2nc(-c3cccc(C)c3)oc2C)cc1	inconclusive: 50.1 µM [inhibitor, partial curve, poor fit]
CCOc1ccccc1NC(=O)Cn1nc(N2CCN(c3ccccc3)CC2)ccc1=O	inconclusive: 89.1 µM [inhibitor, single point]
Cc1cccc(NC(=O)COc2ccc3oc4c(c3c2)CCCC4)c1	inconclusive: 56.2 µM [inhibitor, partial curve, poor fit]
Cc1ccc(-n2cnc3cc(C(=O)NCCC4=CCCCC4)ccc32)cc1Cl	inconclusive: 2.82 µM [inhibitor, full curve, poor fit]
CC(O)CNS(=O)(=O)c1cccc(C(=O)O)c1 (stereo unspecified)	inactive
CCCCn1c(CNC(=O)C23CC4CC(CC(C4)C2)C3)nnc1SCC(=O)Nc1ccc(F)cc1	inconclusive: 56.2 µM [inhibitor, partial curve, poor fit]
CCOc1ccc2nc(N3CCCC(C(=O)NCCc4ccc(C)cc4)C3)sc2c1 (stereo unspecified)	inconclusive: 17.8 µM [inhibitor, partial curve, poor fit]
Cc1c2cnn(-c3ccccc3)c(=O)c2c(C)n1C(C)C(=O)NCc1cccc(Br)c1 (stereo unspecified)	inconclusive: 39.8 µM [inhibitor, partial curve, poor fit]
CCCc1nnc2c(=O)n(CC(=O)Nc3ccccc3C(=O)OCC)c3ccccc3n12	inactive
N#C/C(=C\c1ccc2ccccc2n1)c1nc2ccccc2s1	inconclusive: 20 µM [inhibitor, full curve]
CCOC(=O)C1CCN(C(=O)Cn2ncc3c4ccccc4n(Cc4ccccc4)c3c2=O)CC1	inconclusive: 44.7 µM [inhibitor, partial curve, poor fit]
COC(=O)c1ccccc1NC(=O)Cn1c(CCC(=O)O)ccc1-c1ccc(C)cc1	inconclusive: 89.1 µM [inhibitor, partial curve, poor fit]
Cc1ccc(N2C(=O)CS(=O)(=O)C23C(=O)N(Cc2ccc(Cl)cc2)c2ccccc23)cc1C (stereo unspecified)	inconclusive: 89.1 µM [inhibitor, partial curve, poor fit]
COc1ccc(Cl)cc1NC(=O)C1CCN(S(=O)(=O)c2ccc(F)cc2)CC1	inconclusive: 7.94 µM [inhibitor, full curve, poor fit]
CCOc1cccc(C(=O)N(Cc2ccc(F)cc2)Cc2ccco2)c1	inconclusive: 79.4 µM [inhibitor, partial curve, poor fit]
COc1ccc(-c2nnc3c(C(=O)Nc4cccc5ccccc45)cccn23)cc1	inactive
COc1cc2ccccc2cc1C(=O)N1CCN(c2nc3c(F)cc(F)cc3s2)CC1	inconclusive: 22.4 µM [inhibitor, full curve, poor fit]
COc1ccc(CCNC(=O)Cn2c(-c3ccc(F)cc3)cc(C(C)=O)c2C)cc1OC	inconclusive: 89.1 µM [inhibitor, single point]

Structure (SMILES)	Potency
Cc1cc(=O)n(Cc2c(F)cccc2Cl)c2c1c(C)nn2C	inconclusive: 15.8 µM [inhibitor, full curve]
COc1ccccc1N1CCN(C(=O)c2cc3c(-c4ccccc4F)nn(C)c3s2)CC1	inconclusive: 44.7 µM [inhibitor, partial curve]
COc1cc(NC(=O)Cn2nnnc2-c2ccccc2F)cc(OC)c1OC	inconclusive: 39.8 µM [inhibitor, single point]
Cc1ccc(CNC(=O)CCc2nc3cccnc3n2Cc2ccccc2)cc1	inactive
CC(=O)Nc1ccc(NC(=O)C(NS(=O)(=O)c2ccc(Br)s2)c2ccccc2)cc1 (stereo unspecified)	inactive
CCN(C(=O)Cn1c(=O)n(Cc2ccc3c(c2)OCO3)c(=O)c2ccc(C(=O)NC3CCCCC3)cc21)c1cccc(C)c1	inconclusive: 12.6 µM [inhibitor, full curve, poor fit]
O=C(NC1CCCc2ccccc21)C1CC2CCCC(C1)C2=O (stereo unspecified)	inactive
COc1cc(NC(=O)CSc2nc3nc(C)c(Cc4ccccc4)c(C)n3n2)cc(OC)c1	inconclusive: 28.2 µM [inhibitor, full curve, poor fit]
CC(C)(C)C(C)(O)C#CCN1CCCC1 (stereo unspecified)	inactive
CC(C)/C=N/Nc1ccc(S(N)(=O)=O)cc1[N+](=O)[O-]	inactive
Cc1cc(C)cc(OCC(=O)Nc2cccc(-c3nc4ccccc4[nH]3)c2)c1	inconclusive: 10 µM [inhibitor, full curve, poor fit]
O=S(=O)(NCc1ccccc1)c1ccc2[nH]c3c(c2c1)CCCCC3	inactive
CC(C)(Oc1ccc(F)cc1F)C(=O)Nc1cc(C(C)(C)C)on1	inactive
CCn1cc2nc(SCc3cccc(OC)c3)n(Cc3ccc(Cl)cc3)c(=O)c2n1	inconclusive: 25.1 µM [inhibitor, single point]
O=c1cc(O)c2sc3nc(-c4cccs4)cc(-c4cccs4)c3c2[nH]1	inconclusive: 50.1 µM [inhibitor, partial curve, poor fit]
COc1ccc(C(=O)/C(C#N)=C\c2ccccc2C(F)(F)F)cc1	inactive
COc1cc(C(=O)Nc2ccc(-c3cc(C(F)(F)F)nn3-c3ccccc3)cc2)cc(OC)c1OC	inconclusive: 56.2 µM [inhibitor, partial curve, poor fit]
COc1ccc(OC)c(CNC(=O)c2cc(-c3ccc(Cl)s3)nc3ccccc23)c1	inactive
CCN(C(=O)Cn1c(SCC(=O)NCc2ccccc2)nc2ccccc21)c1cccc(C)c1	inconclusive: 79.4 µM [inhibitor, single point]
CC(C)/C=N/NC(=O)c1ccc[n+]([O-])c1	inactive
